Results from the supplement of paper PMC11417369.
± gives the standard deviation of the averaged measurements. The list shows a part of the results.

The sequences below were run on PfAP2-LT AP2 domain (GST-tagged) (assay: gcPBM binding intensity (ln(normalized median fluorescence intensity)); higher = stronger DNA binding).
In short: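 Each value is the highest Masliner-normalised natural-log median intensity across replicate spots of either orientation of a probe. The probes were primer-extended double-stranded 36-bp intergenic genomic sequences on an Agilent 4 × 180k array, alongside negative controls, exposed for 1 h to GST-tagged P. falciparum DNA-binding domains expressed in E. coli. Bound protein was picked up with Alexa488 anti-GST antibody and scanned at 488 nm.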

Row | Sequence | gcPBM binding intensity (ln)
1 | AGAAAAAAATAATGTACACACACATAGATGTTTATA [CACACA_site4271] | 9.2 ± 0.36
2 | TCAATAATAACAAATGAACACACATATATATGAGCA [CACACA_site8663] | 9.06 ± 0.38
3 | AATATATTTGTGTATGTGCGCAGTGTGTAATTTATT [GTGCAC_site9765] | 9.39 ± 0.28
4 | CATCTCATATTTTGAAGTACTAAGAAAAGATATAAA [XGTACX_site6867] | 8.38 ± 0.44
5 | ACGTAATTAATTCATCAGATATAATTAATAATAATA [XGTACX_negctrl_site550] | 8.66 ± 0.36
6 | ACTAAAGTGTATCACTGTACAATTCTTCTCTTTTTT [XGTACX_site8705] | 8.75 ± 0.49
7 | ATAAATTTTTTTTTTTTTTTTTTTCTTTTTCTTTGT [CACACA_negctrl_site1231] | 8.38 ± 0.57
8 | AAATAATTTTTATTTGTACACACATACATATATATT [CACACA_site8240] | 9.17 ± 0.47
9 | TAAATAAAGATATATACACACATATTTATATTTATA [CACACA_site6431] | 8.76 ± 0.36
10 | CATCATATAAATTCAAGTACAAGAAAAAGTAATATA [XGTACX_site2383] | 8.72 ± 0.51
11 | ACAAAATTGAAATTCACACAAAAACTATACTTTTTA [CACACA_site4638] | 8.48 ± 0.45
12 | ATATCTACTTTTTTATGTACGAAAAAAATACGGATT [XGTACX_site8937] | 8.6 ± 0.38
13 | TATGATATAATATACACACATACATATATATATATA [CACACA_site510] | 9.58 ± 0.23
14 | TTATTCATAAAAACAAAAAACAAAAATGAAATAGGA [CACACA_negctrl_site1123] | 8.64 ± 0.54
15 | TATTATGTCTAAAATAACATATTAATATATTATTTC [CACACA_negctrl_site285] | 8.47 ± 0.52
16 | AGAGTTCTCCTATGCACACAAAAAACTTTCATTTAT [CACACA_site4193] | 8.86 ± 0.37
17 | TTAATATTTTATTTCACACACATAAATGCCCCAAAC [CACACA_site1887] | 9.15 ± 0.49
18 | TCCTCTTATAATTCGTGTCCACATATATCATACAAT [XGTACX_site1523] | 8.85 ± 0.5
19 | AAAAAATACATACATACACACATATATATATATATA [CACACA_site913] | 9.99 ± 0.3
20 | ATAAAACAAATGAGTACACACACATAAAAATTGAAA [CACACA_site7949] | 9.38 ± 0.38
21 | TACGGATATATATATTGTACATATATATAATATATA [XGTACX_site3156] | 8.7 ± 0.38
22 | TTTTTTTTTTTTTTTGTGCACAATATAATTTTTAAT [GTGCAC_site9747] | 8.7 ± 0.4

Row | Sequence | gcPBM binding intensity (ln)
23 | TATATATATATTAATAGTACATATTATGTAAGCCTA [XGTACX_site2826] | 8.96 ± 0.45
24 | TTTCAGACAAAAAAAAAAAAAAAAAAGAGGAGAATA [CACACA_negctrl_site254] | 8.39 ± 0.47
25 | TTATAATATATATCTGCATGTTGCTTTGGGGCTTTA [TGCATGCA_site712] | 8.81 ± 0.38
26 | TATATTAAACAATATACACACATTAATGTAGACATA [CACACA_site8889] | 8.94 ± 0.37
27 | GAAAATTCTTAAGGCACACACATATAAGATATATAC [CACACA_site6410] | 9.14 ± 0.36
28 | AATAAAAAAAAAAAAAAAAAAAAAAACCTGAGGAGT [CACACA_negctrl_site1140] | 8.56 ± 0.56
29 | AACCTTTTAAGAGTTGCACACGTACAAAAAAAAAAA [CACACA_site9159] | 8.88 ± 0.45
30 | TTTAAGCAAAGACACACACACATATTTATATTTATA [CACACA_site6295] | 9.49 ± 0.28
31 | AAACATTTATACAAAGCACACAATTTTTAACTTTTA [CACACA_site2627] | 8.7 ± 0.42
32 | TATCTTCATTGTTGACGTACAGTATTTCTAAACGTT [XGTACX_site3439] | 8.83 ± 0.44
33 | TTTTTTCTTTTTTTTTTTAATTATAAACATGATATT [GTGCAC_negctrl_site144] | 8.36 ± 0.6
34 | TAAATATATATAACATGTACATAAAATATATATATA [XGTACX_site4431] | 8.86 ± 0.39
35 | TACACATACAGACATACACACATACACATATACACA [CACACA_site6918] | 9.85 ± 0.23
36 | AAAAAAAAAAAAAACACACACACACGCACATATACA [CACACA_site7288] | 10.1 ± 0.3
37 | CTATGAACACACACATGTACATATATTAACTCGCTA [XGTACX_site8805] | 9.28 ± 0.28
38 | CCACTTGTGTAATGTTGTACAAAAATAAATATATTT [XGTACX_site4598] | 8.72 ± 0.46
39 | ATAATTAAAAATAATATATATATAATATGATATTAT [GTGCAC_negctrl_site194] | 8.45 ± 0.45
40 | CGAGCAAGACGGGGTGCACACAAACTAATATGCCGA [CACACA_site7936] | 9.55 ± 0.5
41 | TACCTTTATTAATAAAGTACATTAATCTGTGTATAC [XGTACX_site8720] | 8.73 ± 0.45
42 | ATTATTATGTAGAAGGTGCTATGTTCTATAAATATA [GTGCAC_site9545] | 8.73 ± 0.51
43 | CATAAAAATGAACATACACACATATATATATATATA [CACACA_site2498] | 9.8 ± 0.17
44 | TTGCTTTCTTTTTTTTGTACTCATATCTACTATCAT [XGTACX_site7711] | 8.96 ± 0.71

Row | Sequence | gcPBM binding intensity (ln)
45 | AGGCCTTTTAGTATTTCACACACGTAAATGCGTATA [CACACA_site1108] | 9.1 ± 0.33
46 | AAAAAAAAAAAAATGTGGACACAATTGTGTGTTTGT [XGTACX_site3563] | 9.22 ± 0.6
47 | TTTTTGTTAAAATAAATATTATAAATATATTAATAT [TGCATGCA_negctrl_site239] | 8.03 ± 0.47
48 | TACATATTTTATAGCACACAAATAATAATATGTAGT [CACACA_site688] | 8.93 ± 0.33
49 | GTTGTGGAAAGAAGTTGTACATAAAATATTATATAA [XGTACX_site4352] | 8.6 ± 0.49
50 | GTATATATCTAAAAATATATATATATATATATATAT [CACACA_negctrl_site788] | 9.38 ± 0.29
51 | ATCGAAGGGGTACAAAATAAAAATAATTCTTTCAAA [TGCATGCA_negctrl_site373] | 8.55 ± 0.62
52 | AAGTGTTATGAAATATGTACACATATATTATATATA [XGTACX_site6022] | 8.8 ± 0.46
53 | TATAAATAAATATGGAGTACCAAAAAAATTATAAAA [XGTACX_site7581] | 8.6 ± 0.48
54 | ATATAACATGGACACACACACATATATATATATTAT [CACACA_site6135] | 9.88 ± 0.32
55 | ATACAAATTAAGCCTCAAGTTCTTTTTTTTAACATA [XGTACX_negctrl_site580] | 8.48 ± 0.29
56 | AAAAAAAAGAATTATTGTACAAAAGAACAATAAATA [XGTACX_site1368] | 8.73 ± 0.57
57 | GTGAAATTATATTTTTGTACATATATTATATATTAT [XGTACX_site3387] | 8.9 ± 0.49
58 | GGTGCACCCATATACACACACAAATACAATGATAAA [CACACA_site1132] | 9.53 ± 0.52
59 | ATTTAAAATGGTTATACACACATAAAAGGGGAAATG [CACACA_site2649] | 9.14 ± 0.4
60 | ATATATATATATATATGTACATACCCAATTGTGTAA [XGTACX_site6352] | 9.87 ± 0.24
61 | TACAGACATACATACACACATACATATATATATATA [CACACA_site1940] | 9.82 ± 0.34
62 | TTTTTATTAAATAAAGCACACACAACAACTTTTCAC [CACACA_site9372] | 9.09 ± 0.31
63 | AAATATAAAAAAAAAAGTACTTTGTTACTTTTCTAT [XGTACX_site6034] | 8.33 ± 0.42
64 | AAAATAAATATAACCACACACGAAAGAGAGAGAAAA [CACACA_site3272] | 9.35 ± 0.47
65 | TAACCATAAGAAGATTGTACATAATAAAAGTATTCT [XGTACX_site1117] | 8.77 ± 0.37
66 | AACTGCAAAAAAAGACGTACAAATTATTAATTGCAA [XGTACX_site8929] | 8.88 ± 0.54

Row | Sequence | gcPBM binding intensity (ln)
67 | TATTTATTTATTTAGTGTACATTTATATTTGTTCAT [XGTACX_site7575] | 8.96 ± 0.47
68 | TTCTTTTTTTTTAAAACAAACAAACAAACAAACAAA [CACACA_negctrl_site832] | 8.12 ± 0.38
69 | TTAATCTTTCCTACATGTACACACAGAAAAAAAAAA [XGTACX_site5213] | 8.69 ± 0.36
70 | TATCCATATTTGTTCACACACACACCCATTTATATA [CACACA_site3571] | 9.69 ± 0.35
71 | ATTTTTATGTTGAAAAGTACTTGAATCCCATGTAAC [XGTACX_site4453] | 8.65 ± 0.36
72 | ATACAAAATCTAATTTGTACACAATGTTTGATTTTT [XGTACX_site5438] | 8.79 ± 0.39
73 | AATATAAATAAAAAATTGATTTCTTTAAAAAGGTAT [CACACA_negctrl_site1038] | 8.55 ± 0.47
74 | TTGTTCTTTCAAATTATACACACCAAAAAAAAAAAA [CACACA_site3070] | 8.44 ± 0.43
75 | TACAAATGAGAAATATGTACATAAAAAAAAAAAAAT [XGTACX_site801] | 8.99 ± 0.61
76 | TAATCATAAAAAAATACACACATATATAATATATAT [CACACA_site1983] | 8.97 ± 0.35
77 | AAATATTACTACACTACATGCAGTTTTAGGTACACT [TGCATGCA_site42] | 8.97 ± 0.4
78 | AAAAACAAAATATAATGTACACAATATATGTATATA [XGTACX_site2301] | 8.9 ± 0.61
79 | AATAAACATAAATACACACACAAAAAAAAAAACATA [CACACA_site4396] | 9.64 ± 0.33
80 | TTTTTTTTTTTTTGATGTACTAAAAAAAATGAGCCT [XGTACX_site8535] | 8.21 ± 0.4
81 | GATATTAAAATATGTAGTACACATATTATATCATAT [XGTACX_site4167] | 8.83 ± 0.27
82 | TTAAAAATTATGGATACACACATATATATATATATT [CACACA_site2383] | 8.96 ± 0.35
83 | ATAGTTCCTTTTAATACACACAAAAAAAAAAACATG [CACACA_site3415] | 8.77 ± 0.38
84 | TATAGGTAAATGGACACACACATATTTATATTTATA [CACACA_site7683] | 9.23 ± 0.42
85 | TGTAGTCTGGAGAAGAGTACATAGTATCTGGTAACA [XGTACX_site4944] | 8.71 ± 0.62
86 | TTATTAGGTGTATAATGTACATATAATATATATATA [XGTACX_site3398] | 8.8 ± 0.47
87 | TAATGTTTTTATATCACACACAAATATTAAATGATT [CACACA_site543] | 8.95 ± 0.4
88 | TATAATATAAGGATCACACACAAACAGACATATATA [CACACA_site557] | 9.49 ± 0.37
